Each compound was assayed against Recombinant heterodimeric HCV NS3/NS4A protease (strain 1a) (Hepatitis C virus genotype 1a, UniProt P27958) (assay: Spectrophotometric assay for HCV protease inhibitory activity). Conditions: chromogenic ester substrate, 30° C., pH 6.5, read-out: Ki*.
Type: biochemical
Excerpt: Assay for HCV Protease Inhibitory Activity:
Spectrophotometric Assay: Spectrophotometric assay for the HCV serine protease can be performed on the inventive compounds by following the procedure described by R. Zhang et al, Analytical Biochemistry, 270 (1999) 268-275, the disclosure of which is incorporated herein by reference. The assay based on the proteolysis of chromogenic ester substrates is suitable for the continuous monitoring of HCV NS3 protease activity. The substrates are derived from the P side of the NS5A-NS5B junction sequence (Ac-DTEDWX(Nva), where X=A or P) whose C-terminal carboxyl groups are esterified with one of four different chromophoric alcohols (3- or 4-nitrophenol, 7-hydroxy-4-methyl-coumarin, or 4-phenylazophenol). Illustrated below are the synthesis, characterization and application of these novel spectrophotometric ester substrates to high throughput screening and detailed kinetic evaluation of HCV NS3 protease inhibitors.
Protein concentrations are determined by the Biorad dye method using recombinant HCV protease standards previously quantified by amino acid analysis. Prior to assay initiation, the enzyme storage buffer (50 mM sodium phosphate pH 8.0, 300 mM NaCl, 10% glycerol, 0.05% lauryl maltoside and 10 mM DTT) is exchanged for the assay buffer (25 mM MOPS pH 6.5, 300 mM NaCl, 10% glycerol, 0.05% lauryl maltoside, 5 μM EDTA and 5 μM DTT) utilizing a Biorad Bio-Spin P-6 prepacked column.
Spectra of Substrates and Products: Spectra of substrates and the corresponding chromophore products are obtained in the pH 6.5 assay buffer. Extinction coefficients are determined at the optimal off-peak wavelength in 1-cm cuvettes (340 nm for 3-Np and HMC, 370 nm for PAP and 400 nm for 4-Np) using multiple dilutions. The optimal off-peak wavelength is defined as that wavelength yielding the maximum fractional difference in absorbance between substrate and product (product OD−substrate OD)/substrate OD).
Protease Assay: HCV protease assays are performed at 30° C. using a 200 μl reaction mix in a 96-well microtiter plate. Assay buffer conditions (25 mM MOPS pH 6.5, 300 mM NaCl, 10% glycerol, 0.05% lauryl maltoside, 5 μM EDTA and 5 μM DTT) are optimized for the NS3/NS4A heterodimer (D. L. Sali et al, ibid.)). Typically, 150 μl mixtures of buffer, substrate and inhibitor are placed in wells (final concentration of DMSO≦4% v/v) and allowed to preincubate at 30° C. for approximately 3 minutes. Fifty μls of prewarmed protease (12 nM, 30° C.) in assay buffer, is then used to initiate the reaction (final volume 200 μl).The plates are monitored over the length of the assay (60 minutes) for change in absorbance at the appropriate wavelength (340 nm for 3-Np and HMC, 370 nm for PAP, and 400 nm for 4-Np) using a Spectromax Plus microtiter plate reader equipped with a monochrometer (acceptable results can be obtained with plate readers that utilize cutoff filters). Proteolytic cleavage of the ester linkage between the Nva and the chromophore is monitored at the appropriate wavelength against a no enzyme blank as a control for non-enzymatic hydrolysis. The evaluation of substrate kinetic parameters is performed over a 30-fold substrate concentration range (˜6-200 μM). Initial velocities are determined using linear regression and kinetic constants are obtained by fitting the data to the Michaelis-Menten equation using non-linear regression analysis (Mac Curve Fit 1.1, K. Raner). Turnover numbers (kcat) are calculated assuming the enzyme is fully active.

`C#CCCC(NC(=O)[C@@H]1[C@@H]2[C@H](CN1C(=O)[C@@H](NC(=O)N[C@H](CN(C)c1c(C3CC3)c(=O)c1=O)C(C)(C)C)C1CCCCC1)C2(C)C)C(=O)C(=O)NCC=C` (stereo partly drawn) [drawing 244] and `C=CCNC(=O)C(=O)C(CCC)NC(=O)[C@@H]1[C@@H]2[C@H](CN1C(=O)[C@@H](NC(=O)N[C@H](CN(C)c1c(C3CC3)c(=O)c1=O)C(C)(C)C)C1CCCCC1)C2(C)C` (stereo partly drawn) [drawing 248] are within 1.5-fold of each other in Ki: 1.9 nM for the first, 2.7 nM for the second.

`C#CCCC(NC(=O)[C@@H]1[C@@H]2[C@H](CN1C(=O)[C@@H](NC(=O)N[C@H](CN(C)c1c(C(C)(C)C)c(=O)c1=O)C1CCCCC1)C1CCCCC1)C2(C)C)C(=O)C(=O)NCC=C` (stereo partly drawn) [drawing 245] and `C=CCNC(=O)C(=O)C(CCC)NC(=O)[C@@H]1[C@@H]2[C@H](CN1C(=O)[C@@H](NC(=O)N[C@H](CN(C)c1c(C(C)(C)C)c(=O)c1=O)C(C)(C)C)C1CCCCC1)C2(C)C` (stereo partly drawn) [drawing 247] are within 1.5-fold of each other in Ki: 2.2 nM for the first, 2.7 nM for the second.

Going from `C#CCCC(NC(=O)[C@@H]1[C@@H]2[C@H](CN1C(=O)[C@@H](NC(=O)N[C@H](CN(C)c1c(C(C)(C)C)c(=O)c1=O)C(C)(C)C)C1(C)CCCCC1)C2(C)C)C(=O)C(=O)NC1CC1` (stereo partly drawn) [drawing 246] to `CCCC(NC(=O)[C@@H]1[C@@H]2[C@H](CN1C(=O)[C@@H](NC(=O)N[C@H](CN(C)c1c(C(C)(C)C)c(=O)c1=O)C(C)(C)C)C1(C)CCCCC1)C2(C)C)C(=O)C(=O)NC1CC1` (stereo partly drawn) [drawing 254], the Ki rises from 2.6 nM to 8 nM (3.1-fold).

First: C#CCCC(NC(=O)[C@@H]1[C@@H]2[C@H](CN1C(=O)[C@@H](NC(=O)N[C@H](CN(C)c1c(C(C)(C)C)c(=O)c1=O)C(C)(C)C)C1(C)CCCCC1)C2(C)C)C(=O)C(=O)NCC=C (stereo partly drawn) [drawing 249]
Second: C=CCNC(=O)C(=O)C(CCC)NC(=O)[C@@H]1[C@@H]2[C@H](CN1C(=O)[C@@H](NC(=O)N[C@H](CN(C)c1c(C(C)(C)C)c(=O)c1=O)C(C)(C)C)C1(C)CCCCC1)C2(C)C (stereo partly drawn) [drawing 252]
The Ki of the first is 1.8-fold lower: 3 nM for the first, 5.4 nM for the second.

Compared with `CN(C[C@@H](NC(=O)N[C@H](C(=O)N1C[C@H]2[C@@H]([C@H]1C(=O)NC(CCC(F)(F)F)C(=O)C(=O)NC1CC1)C2(C)C)C1(C)CCCCC1)C(C)(C)C)c1c(C(C)(C)C)c(=O)c1=O` (stereo partly drawn) [drawing 250], `C=CCNC(=O)C(=O)C(CCC(F)(F)F)NC(=O)[C@@H]1[C@@H]2[C@H](CN1C(=O)[C@@H](NC(=O)N[C@H](CN(C)c1c(C(C)(C)C)c(=O)c1=O)C(C)(C)C)C1(C)CCCCC1)C2(C)C` (stereo partly drawn) [drawing 253] is 1.5-fold higher in Ki: 4 nM for the first, 6 nM for the second. The first binds more tightly here.

Going from `C=CCNC(=O)C(=O)C(CC1CC1)NC(=O)[C@@H]1[C@@H]2[C@H](CN1C(=O)[C@@H](NC(=O)N[C@H](CN(C)c1c(C(C)(C)C)c(=O)c1=O)C(C)(C)C)C1(C)CCCCC1)C2(C)C` (stereo partly drawn) [drawing 251] to `C=CCNC(=O)C(=O)C(CCC)NC(=O)[C@@H]1[C@@H]2[C@H](CN1C(=O)[C@@H](NC(=O)N[C@H](CN(C)c1c(C3(C)CC3)c(=O)c1=O)C(C)(C)C)C1CCCCC1)C2(C)C` (stereo partly drawn) [drawing 255], the Ki rises from 4.8 nM to 12 nM (2.5-fold).

Same assay, conditions: chromogenic ester substrate, 30° C., pH 6.5, read-out: Ki* Range

`C#CCCC(NC(=O)[C@@H]1[C@@H]2[C@H](CN1C(=O)[C@@H](NC(=O)N[C@H](CN(C)c1c(N(C)C)c(=O)c1=O)C1CCCCC1)C1CCCCC1)C2(C)C)C(=O)C(=O)NCC=C` (stereo partly drawn) [compound 133] and `C=CCNC(=O)C(=O)C(CCC)NC(=O)[C@@H]1[C@@H]2[C@H](CN1C(=O)[C@@H](NC(=O)N[C@H](CN(C)c1c(C)c(=O)c1=O)C(C)(C)C)C1CCCCC1)C2(C)C` (stereo partly drawn) [compound 146] cannot be ordered by Ki: at most 75 nM for the first, at most 75 nM for the second.

`C=CCNC(=O)C(=O)C(CCC)NC(=O)[C@@H]1[C@@H]2[C@H](CN1C(=O)[C@@H](NC(=O)N[C@H](CNc1c(C3CC3)c(=O)c1=O)C(C)(C)C)C(C)(C)C)C2(C)C` (stereo partly drawn) [compound 134] and `C=CCNC(=O)C(=O)C(CCC)NC(=O)[C@@H]1[C@@H]2[C@H](CN1C(=O)[C@@H](NC(=O)N[C@H](CNc1c(N(C)C)c(=O)c1=O)C(C)(C)C)C(C)(C)C)C2(C)C` (stereo partly drawn) [compound 139] cannot be ordered by Ki: at most 75 nM for the first, at most 75 nM for the second.

`C=CCNC(=O)C(=O)C(CCCC)NC(=O)[C@@H]1[C@@H]2[C@H](CN1C(=O)[C@@H](NC(=O)N[C@H](CN(C)c1c(N(C)C)c(=O)c1=O)C(C)(C)C)C(C)(C)C)C2(C)C` (stereo partly drawn) [compound 135] and `C=CCNC(=O)C(=O)C(CCC)NC(=O)[C@@H]1[C@@H]2[C@H](CN1C(=O)[C@@H](NC(=O)N[C@H](CN(C)c1c(N(C)C)c(=O)c1=O)C(C)(C)C)C(C)(C)C)C2(C)C` (stereo partly drawn) [compound 148] cannot be ordered by Ki: at most 75 nM for the first, at most 75 nM for the second.

`C=CCNC(=O)C(=O)C(CCC)NC(=O)[C@@H]1[C@@H]2[C@H](CN1C(=O)[C@@H](NC(=O)N[C@H](CN(C)c1c(CC)c(=O)c1=O)C(C)(C)C)C1CCCCC1)C2(C)C` (stereo partly drawn) [compound 136] and `C=CCNC(=O)C(=O)C(CCC)NC(=O)[C@@H]1[C@@H]2[C@H](CN1C(=O)[C@@H](NC(=O)N[C@H](CN(C)c1c(C3(C)CC3)c(=O)c1=O)C(C)(C)C)C1CCCCC1)C2(C)C` (stereo partly drawn) [compound 142] cannot be ordered by Ki: at most 75 nM for the first, at most 75 nM for the second.

`C=CCNC(=O)C(=O)C(CCC)NC(=O)[C@@H]1[C@@H]2[C@H](CN1C(=O)[C@@H](NC(=O)N[C@H](CNc1c(C(C)(C)C)c(=O)c1=O)C(C)(C)C)C(C)(C)C)C2(C)C` (stereo partly drawn) [compound 137] and `C=CCNC(=O)C(=O)C(CCC)NC(=O)[C@@H]1[C@@H]2[C@H](CN1C(=O)[C@@H](NC(=O)N[C@H](CN(C)c1c(C(C)(C)C)c(=O)c1=O)C(C)(C)C)C(C)(C)C)C2(C)C` (stereo partly drawn) [compound 140] cannot be ordered by Ki: at most 75 nM for the first, at most 75 nM for the second.

`CN(Cc1ccccc1)c1c(N(C)C[C@@H](NC(=O)N[C@H](C(=O)N2C[C@H]3[C@@H]([C@H]2C(=O)NC(CC2CC2)C(=O)C(N)=O)C3(C)C)C(C)(C)C)C(C)(C)C)c(=O)c1=O` (stereo partly drawn) [compound 138] and `CCNC(=O)C(=O)C(CC1CC1)NC(=O)[C@@H]1[C@@H]2[C@H](CN1C(=O)[C@@H](NC(=O)N[C@H](CN(C)c1c(N(C)C)c(=O)c1=O)C(C)(C)C)C(C)(C)C)C2(C)C` (stereo partly drawn) [compound 147] cannot be ordered by Ki: at most 75 nM for the first, at most 75 nM for the second.

`CN(C[C@@H](NC(=O)N[C@H](C(=O)N1C[C@H]2[C@@H]([C@H]1C(=O)NC(CC1CC1)C(=O)C(N)=O)C2(C)C)C(C)(C)C)C1CCCCC1)c1c(C(C)(C)C)c(=O)c1=O` (stereo partly drawn) [compound 141] and `CN(C[C@@H](NC(=O)N[C@H](C(=O)N1C[C@H]2[C@@H]([C@H]1C(=O)NC(CC1CCC1)C(=O)C(N)=O)C2(C)C)C1CCCCC1)C(C)(C)C)c1c(C(C)(C)C)c(=O)c1=O` (stereo partly drawn) [compound 145] cannot be ordered by Ki: at most 75 nM for the first, at most 75 nM for the second.

`C=CCNC(=O)C(=O)C(CCC)NC(=O)[C@@H]1[C@@H]2[C@H](CN1C(=O)[C@@H](NC(=O)N[C@H](CN(C)c1c(C(C)C)c(=O)c1=O)C(C)(C)C)C(C)(C)C)C2(C)C` (stereo partly drawn) [compound 143] and `C=CCNC(=O)C(=O)C(CCC)NC(=O)[C@@H]1[C@@H]2[C@H](CN1C(=O)[C@@H](NC(=O)N[C@H](CN(C)c1c(CC)c(=O)c1=O)C(C)(C)C)C(C)(C)C)C2(C)C` (stereo partly drawn) [compound 144] cannot be ordered by Ki: at most 75 nM for the first, at most 75 nM for the second.

`CC(C)(C)c1c(NCC2(NC(=O)N[C@H](C(=O)N3C[C@H]4[C@@H]([C@H]3C(=O)NC(CC3CC3)C(=O)C(N)=O)C4(C)C)C(C)(C)C)CCCCC2)c(=O)c1=O` (stereo partly drawn) [compound 149] and `C=CCNC(=O)C(=O)C(CCC)NC(=O)[C@@H]1[C@H]2CC(C)(C)O[C@H]2CN1C(=O)[C@@H](NC(=O)N[C@H](CN(C)c1c(N(C)C)c(=O)c1=O)C(C)(C)C)C1CCCCC1` (stereo partly drawn) [compound 150] cannot be ordered by Ki: over 75 nM for the first, over 75 nM for the second.

From patent US7635694B2, “Cyclobutenedione-containing compounds as inhibitors of hepatitis C virus NS3 serine protease” (Schering Corporation, priority 2004, dated 2009)
